# Test results from the supplement of paper PMC8728848.
# This is one part of the list.
# Assays:
# Assay in all cases: glycan array binding signal (z-score within array); higher = stronger binding
# Conditions in all cases: glycan notation: IUPAC condensed, linker removed
# [1] = target: GlcNAc(b1-2)[GlcNAc(b1-6)]Man(a1-6)[GlcNAc(b1-4)][GlcNAc(b1-2)Man(a1-3)]Man(b1-4)GlcNAc(b1-4)GlcNAc
# Procedure, shortened: (§1)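 Columns mapping to the same glycan were averaged after glycan names were converted to IUPAC-condensed notation. The data come from 3228 arrays in the Consortium for Functional Glycomics database, limited to those with an available protein sequence. Binding is reported as a within-array Z-score averaged across arrays of one protein sequence and across linkers.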
# GlcNAc(b1-3)Fuc = target: GlcNAc(b1-3)Fuc
# Procedure, shortened: as §1
# GlcNAc(b1-3)Gal = target: GlcNAc(b1-3)Gal
# Procedure, shortened: as §1
# [2] = target: GlcNAc(b1-3)Gal(b1-3)GalNAc
# Procedure, shortened: as §1
# GlcNAc(b1-3)Gal(b1-4)Glc = target: GlcNAc(b1-3)Gal(b1-4)Glc
# Procedure, shortened: as §1
# [3] = target: GlcNAc(b1-3)Gal(b1-4)GlcNAc
# Procedure, shortened: as §1
# [4] = target: GlcNAc(b1-3)Gal(b1-4)GlcNAc(b1-2)Man(a1-3)[GlcNAc(b1-3)Gal(b1-4)GlcNAc(b1-2)Man(a1-6)]Man(b1-4)GlcNAc(b1-4)GlcNAc
# Procedure, shortened: as §1
# [5] = target: GlcNAc(b1-3)Gal(b1-4)GlcNAc(b1-2)Man(a1-3)[GlcNAc(b1-3)Gal(b1-4)GlcNAc(b1-2)Man(a1-6)]Man(b1-4)GlcNAc(b1-4)[Fuc(a1-6)]GlcNAc
# Procedure, shortened: as §1
# [6] = target: GlcNAc(b1-3)Gal(b1-4)GlcNAc(b1-2)[GlcNAc(b1-3)Gal(b1-4)GlcNAc(b1-6)]Man(a1-6)[GlcNAc(b1-3)Gal(b1-4)GlcNAc(b1-2)Man(a1-3)]Man(b1-4)GlcNAc(b1-4)GlcNAc
# Procedure, shortened: as §1
# [7] = target: GlcNAc(b1-3)Gal(b1-4)GlcNAc(b1-3)Gal(b1-4)GlcNAc
# Procedure, shortened: as §1
# [8] = target: GlcNAc(b1-3)Gal(b1-4)GlcNAc(b1-3)Gal(b1-4)GlcNAc(b1-2)Man(a1-3)[GlcNAc(b1-3)Gal(b1-4)GlcNAc(b1-3)Gal(b1-4)GlcNAc(b1-2)Man(a1-6)]Man(b1-4)GlcNAc(b1-4)GlcNAc
# Procedure, shortened: as §1
# [9] = target: GlcNAc(b1-3)Gal(b1-4)GlcNAc(b1-3)Gal(b1-4)GlcNAc(b1-2)Man(a1-3)[GlcNAc(b1-3)Gal(b1-4)GlcNAc(b1-3)Gal(b1-4)GlcNAc(b1-2)Man(a1-6)]Man(b1-4)GlcNAc(b1-4)[Fuc(a1-6)]GlcNAc
# Procedure, shortened: as §1
# [10] = target: GlcNAc(b1-3)Gal(b1-4)GlcNAc(b1-3)Gal(b1-4)GlcNAc(b1-2)[GlcNAc(b1-3)Gal(b1-4)GlcNAc(b1-3)Gal(b1-4)GlcNAc(b1-6)]Man(a1-6)[GlcNAc(b1-3)Gal(b1-4)GlcNAc(b1-3)Gal(b1-4)GlcNAc(b1-2)Man(a1-3)]Man(b1-4)GlcNAc(b1-4)[Fuc(a1-6)]GlcNAc
# Procedure, shortened: as §1
# [11] = target: GlcNAc(b1-3)Gal(b1-4)GlcNAc(b1-3)Gal(b1-4)GlcNAc(b1-3)Gal(b1-4)GlcNAc(b1-2)Man(a1-3)[GlcNAc(b1-3)Gal(b1-4)GlcNAc(b1-3)Gal(b1-4)GlcNAc(b1-3)Gal(b1-4)GlcNAc(b1-2)Man(a1-6)]Man(b1-4)GlcNAc(b1-4)GlcNAc
# Procedure, shortened: as §1
# [12] = target: GlcNAc(b1-3)Gal(b1-4)GlcNAc(b1-3)Gal(b1-4)GlcNAc(b1-3)Gal(b1-4)GlcNAc(b1-2)Man(a1-3)[GlcNAc(b1-3)Gal(b1-4)GlcNAc(b1-3)Gal(b1-4)GlcNAc(b1-3)Gal(b1-4)GlcNAc(b1-2)Man(a1-6)]Man(b1-4)GlcNAc(b1-4)[Fuc(a1-6)]GlcNAc
# Procedure, shortened: as §1
# [13] = target: GlcNAc(b1-3)Gal(b1-4)GlcNAc(b1-3)Gal(b1-4)GlcNAc(b1-3)Gal(b1-4)GlcNAc(b1-2)[GlcNAc(b1-3)Gal(b1-4)GlcNAc(b1-3)Gal(b1-4)GlcNAc(b1-3)Gal(b1-4)GlcNAc(b1-6)]Man(a1-6)[GlcNAc(b1-3)Gal(b1-4)GlcNAc(b1-3)Gal(b1-4)GlcNAc(b1-3)Gal(b1-4)GlcNAc(b1-2)Man(a1-3)]Man(b1-4)GlcNAc(b1-4)[Fuc(a1-6)]GlcNAc
# Procedure, shortened: as §1
# [14] = target: GlcNAc(b1-3)Gal(b1-4)GlcNAc(b1-3)Gal(b1-4)GlcNAc(b1-3)Gal(b1-4)GlcNAc(b1-3)Gal(b1-4)GlcNAc(b1-2)Man(a1-3)[GlcNAc(b1-3)Gal(b1-4)GlcNAc(b1-3)Gal(b1-4)GlcNAc(b1-3)Gal(b1-4)GlcNAc(b1-3)Gal(b1-4)GlcNAc(b1-2)Man(a1-6)]Man(b1-4)GlcNAc(b1-4)GlcNAc
# Procedure, shortened: as §1
# [15] = target: GlcNAc(b1-3)Gal(b1-4)GlcNAc(b1-3)Gal(b1-4)GlcNAc(b1-3)Gal(b1-4)GlcNAc(b1-3)Gal(b1-4)GlcNAc(b1-2)Man(a1-3)[GlcNAc(b1-3)Gal(b1-4)GlcNAc(b1-3)Gal(b1-4)GlcNAc(b1-3)Gal(b1-4)GlcNAc(b1-3)Gal(b1-4)GlcNAc(b1-2)Man(a1-6)]Man(b1-4)GlcNAc(b1-4)[Fuc(a1-6)]GlcNAc
# Procedure, shortened: as §1
# [16] = target: GlcNAc(b1-3)Gal(b1-4)GlcNAc(b1-3)Gal(b1-4)GlcNAc(b1-3)Gal(b1-4)GlcNAc(b1-3)Gal(b1-4)GlcNAc(b1-2)[GlcNAc(b1-3)Gal(b1-4)GlcNAc(b1-3)Gal(b1-4)GlcNAc(b1-3)Gal(b1-4)GlcNAc(b1-3)Gal(b1-4)GlcNAc(b1-6)]Man(a1-6)[GlcNAc(b1-3)Gal(b1-4)GlcNAc(b1-3)Gal(b1-4)GlcNAc(b1-3)Gal(b1-4)GlcNAc(b1-3)Gal(b1-4)GlcNAc(b1-2)Man(a1-3)]Man(b1-4)GlcNAc(b1-4)[Fuc(a1-6)]GlcNAc
# Procedure, shortened: as §1
binder,measurement,setting,value
PX9937B-bvu-524-33-524 (Bacteroides vulgatus) (protein) GTAYWKNPDQFTAFNTGLHALLREKSYNFFLLGEPRADIYGDNPIGGEASQGMERLPFNTINKENVGISNYGDMYKIINQINQMIAKTTETTILTEATQNYYLGEAYGMRAYLYFHLLRSWGDVVLYLDYTEGQNLDLSNITKGVSPATEVMEQIKKDIQASENAFGSDYSFKLGRHFWSAAATQMLKGEAYLWSGRQMNGGNSDYTIAKNAFENVKKADVGLVTSSFKDIFSFENKKNKEMIFTIHNGKDEYEMWGGYYRMRLIPAQDKMVKIYCDENGNSFVGTPDAQLNGLTQLQVRREFYFKGFRNNDTRWTTSLKAVYKKDAQGVVSYFGPITYKFQGTMLEGGSTRSFLDDFPIYRYADCLLQLAMAKVLLGEDPTEEINAVRERAYGSKYFNEHKAEIAYPNDNDPEFYTDNKWMKPDNAGALEAILKERLREFMFEGKRWYDIRLLGWDYVHQYSSAEQSRLLWPIDAGTLTNNSALKQTPGYE,glycan array binding signal (z-score),[1],-0.242
same,glycan array binding signal (z-score),GlcNAc(b1-3)Fuc,-0.272
same,glycan array binding signal (z-score),GlcNAc(b1-3)Gal,-0.511
same,glycan array binding signal (z-score),[2],-0.154
same,glycan array binding signal (z-score),GlcNAc(b1-3)Gal(b1-4)Glc,-0.409
same,glycan array binding signal (z-score),[3],-0.401
same,glycan array binding signal (z-score),[4],-0.422
same,glycan array binding signal (z-score),[5],0.392
same,glycan array binding signal (z-score),[6],0.028
same,glycan array binding signal (z-score),[7],-0.3
same,glycan array binding signal (z-score),[8],0.263
same,glycan array binding signal (z-score),[9],-0.073
same,glycan array binding signal (z-score),[10],-0.185
same,glycan array binding signal (z-score),[11],-0.316
same,glycan array binding signal (z-score),[12],1.52
same,glycan array binding signal (z-score),[13],0.129
same,glycan array binding signal (z-score),[14],1.28
same,glycan array binding signal (z-score),[15],5.78
same,glycan array binding signal (z-score),[16],-0.229
